In the RNAGym collection of RNA variant scans (doi:10.1093/nar/gkz1192):
The source gives no read counts; variants with many changes may rest on few reads.

B1: CPEB3 Ribozyme (parent)
chain: UAACAGGGGGCCACAGCAGAAGCGUUCACGUCGCAGCCCCUGUCAGAUUCUGGUGAAUCUGCGAAUUCUGCUGUAUAUCUC

Variants of: B1
Assay: self-cleavage, relative activity (ratio to wild type); higher = more cleavage; in vitro, sequencing
Outline: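 After error-prone PCR and barcoding, CPEB3 ribozyme mutant libraries were transcribed with T7 RNA polymerase at 37°C for 5 hours, then given 15 min with DNase I before an EDTA stop, and they cleaved during both steps. Reverse transcription with template switching preceded Illumina sequencing. Relative activity divides a variant's cleaved/total read fraction by the unmutated ribozyme's. At least 5 reads were required per variant, and three batches were averaged.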

Row | Variant | self-cleavage
1 | A13G U25C C32U U60C | 0.13
2 | A13G U31C U49C U76G | 0.05
3 | A13G U31A U43C A65G | 0.16
4 | A13G U25A A45C U67C | 0.09
5 | A13G U26C C40U U66C | 0.05
6 | A13U A18U A47G | 0.33
7 | A13G G46U G70A U72C U74A | 0.07
8 | A13G C39U U43C U54A | 0.56
9 | A13G G24A U78G | 0.18
10 | A13U A15G C62U U66C U69A A75G | 0.5
11 | A13G U41C U43C U54C U74C | 0.33
12 | A13G U48A U51A U60C U72G | 0.16
13 | A13G C39G A77G | 0.07
14 | A13G C40A C50A U69C U72A A75U | 0.05
15 | A13G U25C A64G U67C | 0.13
16 | A13G G19A U72C U76C | 0.16
17 | A13U A15G C44A U60C A64G | 0.11
18 | A13G G19C A28U U69C U74G A75U | 0.19
19 | A13G G19A U41C U49C A65G | 0.07
20 | A13G U48C G55U U58C | 0.18
21 | A13G U49A A57G U66C | 0.11
22 | A13G U25C U41C U80C | 0.11
23 | A13U A18U A45G A56G | 0.18
24 | A13G G42U U78C U80A | 0.41

Row | Variant | self-cleavage
25 | A13G G36A U41C U60C | 0.27
26 | A13G U31A U43C U60C | 0.13
27 | A13G U49C A65U | 0.2
28 | A13G U48C U54C | 0.43
29 | A13U A18G A20U A35G A75G | 0.3
30 | A13G G36A U54C U67A | 0.1
31 | A13U A15G C32U | 0.4
32 | A13G U74C U76G | 0.8
33 | A13U A20G A65G | 0.26
34 | A13G U69C U78C | 0.33
35 | A13U A15G A64G U67C | 0.42
36 | A13U A15U U25C A45G | 0.22
37 | A13G U26C U80C | 0.61
38 | A13G U26C U43C A47G U76C A77G | 0.43
39 | A13G G24A U58C U80C | 0.22
40 | A13G C62A A77G | 0.26
41 | A13G U25C U43C U49C A64U | 0.12
42 | A13U A18G A35G U54A A57U C59A U67C | 0.24
43 | A13G G22U A56U U66C U72A U76C | 0.04
44 | A13G U26C U60G | 0.12
45 | A13G U43C A45U U54C | 0.3
46 | A13U A18G G63A U69C | 1.26
47 | A13G G16C A28G A35U U48A U58A A64U | 0.1
48 | A13U A18G U41G A65G U72A | 0.04

Row | Variant | self-cleavage
49 | A13U A18U A28C U43A | 0.17
50 | A13U A15G G24C G46U U54A A65G | 0.08
51 | A13U A18G U41A G52A U80G | 0.3
52 | A13G U48C G63C | 0.22
53 | A13G U25C A28G G33A C39A U58C A75G | 0.09
54 | A13G G30A A75G | 0.11
55 | A13G C40A C50A C62G C79G | 0.06
56 | A13G U25C U60C A64G A65G U67C | 0.09
57 | A13G U41A U60C U72A | 0.31
58 | A13G U41A U43G U48C G63A | 0.1
59 | A13G U54A A65G | 0.34
60 | A13U A20C U48C A64U | 0.17
61 | A13G U25C A75G | 0.26
62 | A13U A18U A20U U41A U51C U60A A75U | 0.1
63 | A13G U26C U66A A77G | 0.33
64 | A13G G33C U51C U78C | 0.07
65 | A13G U26C U49C U72G | 0.16
66 | A13G U67A U69C | 0.16
67 | A13G G53A U72C | 0.92
68 | A13G U41A A56U | 0.12
69 | A13G U26C G33U A47G A64G | 0.12
70 | A13U A18G C27U U31C A35C G63A U80A | 0.84
71 | A13G U54C A57G | 0.47
72 | A13G U31C A56G A57G | 0.39

Row | Variant | self-cleavage
73 | A13G U43C U66C | 0.18
74 | A13G U26C U60C U76C | 0.15
75 | A13G G24A G53A U74A | 0.18
76 | A13U A15U C17U A20C U41C A45U U60C | 0.05
77 | A13U A18G U26C U31A U72A | 0.04
78 | A13G C68A U76A | 0.39
79 | A13G U25A G30A A45G G55A | 0.17
80 | A13G U43C A57U U67A | 0.09
81 | A13G C37U A47G U72A | 0.28
82 | A13U A18G C40U A56G U60A | 0.19
83 | A13G U41A G52U U78C | 0.21
84 | A13U A15G A56U | 0.4
85 | A13G C40U U54C A65G U67A A75U | 0.14
86 | A13G U41G U49C A56U | 0.16
87 | A13G C40U U60A A65G | 0.14
88 | A13G G24A U25C U41C G46U U72C | 0.19
89 | A13G U51A U54C | 0.75
90 | A13G U26C A45G | 0.14
91 | A13G U26C A45U | 0.38
92 | A13G U49C C59G A77G | 0
93 | A13G C40G U41G A45G U49C | 0.09
94 | A13G U26A G61A | 0.38
95 | A13G G24U U25C U31C U41C | 0.28
96 | A13G U43A U48C U49C U72C | 0.31

Row | Variant | self-cleavage
97 | A13G G42A U51C G52C U60C | 0.11
98 | A13U A18G U41A A56G U60C U67C U69A | 0.15
99 | A13G G24A U25C U41C U54G U66C | 0.16
100 | A13U A20G C68A | 0.16
101 | A13G U43C U51A A64U U78C | 0.23
102 | A13U A15G A18U C39G | 0.14
103 | A13G U25C A64G | 0.36
104 | A13G C34U U72C U78A | 0.72
105 | A13G U25C U48C U60C A65C | 0.34
106 | A13U A15U U41A U54C A65G U67A | 0.07
107 | A13G U25C U43G U58A | 0.19
108 | A13G U41C G61A A77G | 0.36
109 | A13G U41C A65G | 0.22
110 | A13U A18U G42A U49A U51C G61A | 0.04
111 | A13U A18G G33C U69A | 0.07
112 | A13G G19U A28G G55U A64U | 0.07
113 | A13U A15C A45G | 0.59
114 | A13G U41C A45G U49C | 0.22
115 | A13G U51A U66C | 0.25
116 | A13G G33U A35U U41C U60A | 0.16
117 | A13G U51A A64U | 0.23
118 | A13U A18G U66A U76A | 0.4
119 | A13G G52A U74A | 1.24
120 | A13G U25A U67A U78A | 0.06

Row | Variant | self-cleavage
121 | A13U A15C G33A C81A | 0.27
122 | A13G U43A A45U U69C | 0.2
123 | A13G U31A U41C | 0.25
124 | A13U A15U A77G | 0.59
125 | A13G U26A U48C U74C | 0.31
126 | A13U A18G A20G U31C A45U U67C U80C | 0.05
127 | A13G U31A U41A U51C A57G A75U U78A | 0.02
128 | A13G U54C U60A U74C | 0.25
129 | A13U A15G U41C G46A U80C | 0.39
130 | A13U A15C U80A | 0.84
131 | A13G U25C U43G A56G U69C | 0.15
132 | A13G U54C A64U | 0.2
133 | A13U A15G U41A U67C | 0.16
134 | A13U A18G U43C A45G | 0.33
135 | A13G U49A G70U A75C | 0.16
136 | A13G U25A U41C U43C | 0.23
137 | A13U A18U U51A G70A U72C | 0.22
138 | A13G U43C U48A A77U | 0.18
139 | A13G U26A U74C | 0.59
140 | A13U A15G U26A U48C C59A C62G U69C | 0.09
141 | A13U A18U U43A U51A | 0.6
142 | A13G U25A U80C | 0.22
143 | A13G U25C U54C U60C A64G | 0.05
144 | A13G U41C A45U A56G U66C U69C C79A | 0.19

Row | Variant | self-cleavage
145 | A13G U66A U67A U69A | 0.22
146 | A13G U41C U43G A45U U48C U72A | 0.13
147 | A13G U26A C50A | 0.49
148 | A13G C40U U72A A77G | 0.4
149 | A13G U31A A35G A75U | 0.8
150 | A13G C37U A57G | 0.68
151 | A13G U26C A35U C40U A45G | 0.1
152 | A13U A18G U43C U48C | 0.08
153 | A13G U67C A77U | 0.14
154 | A13U A15U A18U U31C G52C U60A | 0.06
155 | A13G G33A U41C U51A U72C | 0.06
156 | A13G G55A U60C A75G U80C | 0.2
157 | A13G U25C G33A A35G | 0.34
158 | A13U A18U A45U U80C | 0.34
159 | A13G C40U A65G U72C U74A | 0.07
160 | A13G U48C U60C | 0.08
161 | A13G U49C U60A | 0.11
162 | A13U A18G A35G U54A C59A U67C | 0.51
163 | A13U A15U U54A U69C | 0.09
164 | A13U A20G U25A U26A A56G U78C | 0.06
165 | A13G U51A U60C G70A | 0.16
166 | A13G U41A U66G | 0.27
167 | A13G G19U G63A U69C | 0.22
